Laboratory results as given in PubChem BioAssay AID445 (National Center for Advancing Translational Sciences (NCATS), 2006).
Out of some 110,000 compounds screened, about 40 (0.04%) were called active. Inconclusive means that the source gave no clear call. Such entries were picked first, then a sample of the others. Calls come from the whole dose curve; as a rule, active = well fitted curve in the direction sought with a large enough effect in the signal ratio (not every such curve was filed as active); inconclusive = small, poorly fitted or top-dose-only effect, or a change in a side signal; inactive = flat fitted curve, though single readings scatter; the % refers to the signal ratio. Where the call is inconclusive, the potency comes from a doubtful curve fit.

Assay: IkB Signaling;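 for IkBa stabilization activation: 0% = basal untreated cells and 100% = reference inhibitor full response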
Settings: ABC-DLBCL IkBa-CBG/CBR dual luciferase ratio (green luciferase fused to IkBa over red control in OCI-Ly3 lymphoma cells), 4 h; IkBa stabilization activation: at 57.1 µM (top of the series), scaled: untreated 0%, proteasome inhibitor 100% unless noted
Method in brief: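 In this assay, an IκBα–CBG68 fusion accumulates when IKK-driven degradation is blocked; native CBR normalizes for cell number. OCI-Ly3 cells were treated 4 h with compound and doxycycline, then green and red light read after Chroma-Glo addition.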
Potency is the fitted concentration of half-maximal effect.

SMILES | IkBa stabilization activation | Potency
CCN(CC)c1ccc(NC(=O)c2cnc3c(-c4ccccc4)c(C)nn3c2C)c(C)c1 | inconclusive: 3.27% [signal inhibitor] | –
Clc1cccc(-c2nc(-c3ccccn3)no2)c1 | inconclusive: 7.11% [signal inhibitor] | –
CCOC(=O)c1cc2c(=O)n3ccccc3nc2n(C(C)C)c1=NC(=O)c1cc2ccccc2o1 | inconclusive: 5.07% [signal inhibitor] | –
COc1ccc(CNC(=O)CN2C(=O)COc3ccc(S(=O)(=O)Nc4ccccc4)cc32)cc1 | inconclusive: 1.43% [signal inhibitor] | –
c1ccc2c(c1)nnn2Cc1nnc2sc(-c3ccc4c(c3)OCCO4)nn12 | inactive | –
O=C(Nc1ccc(F)c(F)c1)c1cc(S(=O)(=O)NC2CCCCCC2)ccc1F | inconclusive: -0.814% [signal inhibitor] | –
Cn1c2ccccc2c2c(C(=O)N3CCN(c4ccccn4)CC3)cn(C3CCCC3)c(=O)c21 | inconclusive: 2.94% [signal inhibitor] | –
COc1ccc(-c2cc(C(F)(F)F)nc(S(C)(=O)=O)n2)cc1 | inactive | –
CCOC(=O)c1sc2ccccc2c1S(=O)(=O)Nc1ccc(CC)cc1 | inactive | –
CNC(=O)c1c(NC(=O)c2ccc(S(=O)(=O)N3CCCCC3)cc2)sc2c1CCC2 | inconclusive: 3.88% [signal inhibitor] | –
OCCNc1nc(-c2cccnc2)nc2ccccc12 | inactive | –
COc1ccc(-n2ccnc(NCc3ccccc3OC)c2=O)cc1 | inactive | –
CCOc1ccc(N2CC(NC(=O)/C=C\c3ccc4c(c3)OCO4)CC2=O)cc1 (stereo unspecified) | inactive | –
O=C(COc1ccccc1Cl)Nc1ccc(Cl)cn1 | inactive | –
CCCCN(CCCC)CCNC(=O)Cn1nc(C)n2c(cc3sccc32)c1=O | inconclusive: -1.25% [signal inhibitor] | –
CC(C)(C)c1ccc(C(=O)N2CCC(c3nc(-c4ccc(S(=O)(=O)N5CCCC5)cc4)no3)CC2)cc1 | inconclusive: -1.21% [signal inhibitor] | –
CCCCN(C(=O)c1c(C)[nH]c(C(=O)OCC)c1C)c1ccccc1 | inactive | –
CCOc1ccc(-c2cc3c(=O)n(Cc4nc(-c5ccc(OC(C)C)cc5)oc4C)ccn3n2)cc1Cl | inactive | –
CCCCN(CC)CCCNC(=O)Cn1ncc2c3ccccc3n(Cc3ccccc3F)c2c1=O | inconclusive: -0.783% [signal inhibitor] | –
CCOc1ccc(C2c3c(oc4cc(C)c(C)cc4c3=O)C(=O)N2CCCN2CCOCC2)cc1 (stereo unspecified) | inactive | –
Cc1ccc(-c2n[nH]c3c2C(c2cccc(O)c2)N(c2ccc(C(=O)O)cc2)C3=O)cc1 (stereo unspecified) | – | inconclusive: 20 µM [signal inhibitor]
